Results on 59 compounds are retold here after article PMC4336329 (PLoS ONE, 2015).

The campaign covered roughly 310,000 compounds. About 14,000 (4.5%) showed an effect of 50% or more. The effect is printed as a negative number. The list shows a part of the results.
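Further: peak tail current of the secondary pulse compared with the same well before compound.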

Sequence of human ether-à-go-go-related gene (hERG) potassium channel (Q12809 whole entry, looked up): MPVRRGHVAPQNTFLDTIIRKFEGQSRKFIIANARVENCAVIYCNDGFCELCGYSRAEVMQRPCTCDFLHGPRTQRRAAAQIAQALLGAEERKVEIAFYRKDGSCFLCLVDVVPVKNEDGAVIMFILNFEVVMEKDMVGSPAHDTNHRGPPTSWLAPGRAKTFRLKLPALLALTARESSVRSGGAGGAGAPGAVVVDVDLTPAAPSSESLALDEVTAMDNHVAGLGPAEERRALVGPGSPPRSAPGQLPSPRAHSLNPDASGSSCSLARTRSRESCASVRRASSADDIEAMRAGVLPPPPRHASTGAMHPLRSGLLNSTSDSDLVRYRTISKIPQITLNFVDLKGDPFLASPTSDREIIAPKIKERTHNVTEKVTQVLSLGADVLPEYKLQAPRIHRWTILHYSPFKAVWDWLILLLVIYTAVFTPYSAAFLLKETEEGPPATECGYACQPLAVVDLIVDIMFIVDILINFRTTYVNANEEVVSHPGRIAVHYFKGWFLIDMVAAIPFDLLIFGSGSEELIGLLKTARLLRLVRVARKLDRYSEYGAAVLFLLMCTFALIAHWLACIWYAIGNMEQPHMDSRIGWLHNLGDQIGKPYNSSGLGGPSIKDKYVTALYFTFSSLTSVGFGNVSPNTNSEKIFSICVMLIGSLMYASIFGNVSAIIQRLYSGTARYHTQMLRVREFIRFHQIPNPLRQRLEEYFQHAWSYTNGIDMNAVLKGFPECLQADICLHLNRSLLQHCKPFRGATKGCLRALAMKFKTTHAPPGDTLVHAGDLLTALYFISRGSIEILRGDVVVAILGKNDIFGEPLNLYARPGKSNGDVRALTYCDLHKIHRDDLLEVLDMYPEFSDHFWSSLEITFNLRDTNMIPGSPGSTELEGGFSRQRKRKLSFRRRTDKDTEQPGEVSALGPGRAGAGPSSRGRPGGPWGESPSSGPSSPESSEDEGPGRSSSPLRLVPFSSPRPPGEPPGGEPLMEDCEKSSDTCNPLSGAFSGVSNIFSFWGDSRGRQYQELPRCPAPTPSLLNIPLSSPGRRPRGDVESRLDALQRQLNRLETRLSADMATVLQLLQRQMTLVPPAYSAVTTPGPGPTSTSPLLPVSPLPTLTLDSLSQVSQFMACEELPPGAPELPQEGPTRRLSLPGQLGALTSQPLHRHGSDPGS

The assay has as its target human ether-à-go-go-related gene (hERG) potassium channel (human, UniProt Q12809). Briefly: primary screen, population patch clamp on CHO cells stably expressing hERG.
With `CC/C(O)=C1\C(=O)CCCC1=NCCc1nc2ccccc2[nH]1`, the “hERG current change (%, negative = inhibition) at 10uM” value was -4.16%. As to `O=C(OCc1cc(=O)n2cc(Br)ccc2n1)c1ccc(Cl)c(S(=O)(=O)NCc2ccccc2)c1`, the “hERG current change (%, negative = inhibition) at 10uM” value is 6.43%. In the case of `CCOC(=O)C1=C(C)NC(=O)NC1/C=C/c1ccccc1OC` (centres unmarked) it was 22.6%. Take `CC(=O)c1cccc(NC(=O)NC2CC(=O)N(c3ccc4c(c3)OCCO4)C2)c1` (centres unmarked): the “hERG current change (%, negative = inhibition) at 10uM” value worked out at 0.0754%. With `CC(NC(=O)CN1c2cccc3cccc(c23)S1(=O)=O)c1ccc(S(N)(=O)=O)cc1` (centres unmarked), the “hERG current change (%, negative = inhibition) at 10uM” value was -25.1%.

Turning to `Cc1cccc(N(C)S(=O)(=O)c2c[nH]c3ccc([N+](=O)[O-])cc23)c1`, the “hERG current change (%, negative = inhibition) at 10uM” value amounted to 12.5%. With `COc1ccc(OC)c(NC(=O)C2CCCNC2=O)c1` (centres unmarked), the “hERG current change (%, negative = inhibition) at 10uM” value was found to be 4.53%.

In the case of `CC(Cc1ccccc1)NCCC(=O)NC(C)Cc1ccccc1` (centres unmarked), the “hERG current change (%, negative = inhibition) at 10uM” value was determined as 11.5%. The value for `O=C(CCN1CCN(c2ccc(Cl)cc2)CC1)Nc1ccccc1F` was -34%. As for `Cc1ccccc1OCCC(=O)OCC(=O)Nc1c(F)cccc1F`, the “hERG current change (%, negative = inhibition) at 10uM” value is listed as 7.99%. In the case of `CC(C)(C)[C@H]1C=C(C(=O)O)O[C@@H](OCCCCO)C1` it was 6.41%; in that of `O=c1ccc(Br)c[nH]1`, 10.3%; in that of `COc1ccc(Cl)cc1N=Cc1c(O)c2ccccc2oc1=O`, 26.2%. In the case of `COc1c2c(cc3oc(=O)ccc13)OC(C)(C)C=C2` it was -3.85%. In the case of `COc1cc(/C=N/NC(=O)c2csc3c2CCCC3)ccc1OCCN1CCOCC1` it was -31.9%. Take `COc1ccccc1N(CCC#N)C(=O)CSc1nnc2ccccn12`: the “hERG current change (%, negative = inhibition) at 10uM” value is reported as -7.23%. For `N#Cc1c(/N=C/c2ccc(-c3ccccc3C(=O)O)o2)sc2c1CCCC2`, the “hERG current change (%, negative = inhibition) at 10uM” value is 20.1%. In the case of `Cc1cccc(C2c3[nH]c4ccccc4c3CCN2C(=O)c2noc3c2CCCC3)n1` (centres unmarked) it was 1.18%; in that of `CC(=O)c1ccc(NC(=O)CCNC(=O)c2ccccc2Cl)cc1`, -46%; in that of `O=C(N/N=C/C(Cl)=C\c1ccccc1)c1cccs1`, 13.3%.

For `COc1ccccc1N1CCN(C(=O)c2sc3nc(-c4ccccc4)cn3c2C)CC1`, the “hERG current change (%, negative = inhibition) at 10uM” value is on record as -35%. As to `Cc1nn(CCCC(=O)NCc2ccccc2)c(C)c1[N+](=O)[O-]`, the “hERG current change (%, negative = inhibition) at 10uM” value is listed as -3.55%. In the case of `CCCC(=O)N1CCN(c2nc(CC(C)C)c3c(c2C#N)CCC3)CC1` it was -53%; in that of `CCN(Cc1nc(-c2ccc(OC)c(OC)c2)no1)C(=O)c1ccoc1C`, 12.7%; in that of `O=C(O)c1cccc(Nc2ccc([N+](=O)[O-])cn2)c1`, 21.3%. In the case of `NC(=O)c1c(N)sc(=S)n1CC1CCCO1` (centres unmarked) it was 0.716%; in that of `O=C(CSc1nc(Nc2ccccc2)nc(N2CCOCC2)n1)Nc1cc(Cl)ccc1O`, -26.8%. The value for `COc1ccccc1C(=O)Nc1ccc(Oc2nnc(-c3ccc(C)cc3)c3ccccc23)cc1` was 11.8%; that for `CC(C)CNC(=O)CCc1nc(-c2ccccc2)no1` was 10.4%. In the case of `O=C(CCC1CCCC1)NNC(=O)c1ccc(F)cc1`, the “hERG current change (%, negative = inhibition) at 10uM” value is -9.74%. In the case of `CCOC(=O)c1[nH]cnc1C(=O)N[C@@H](C)c1ccccc1` it was -5.33%. The value for `CCNC(=S)N1CCN(c2ccccc2OCC)CC1` was -1.46%; that for `C[C@@H](CSc1ccc(Br)cc1)CN1CC[C@H](O)CCC1=O` was -12%; that for `CC1CC(C)CN(C(=S)SCc2nc(N)nc(Nc3ccccc3)n2)C1` (centres unmarked) was -6.04%. Regarding `COc1ccc(NC(=O)Nc2ccc(CC(=O)O)cc2)cc1`, the “hERG current change (%, negative = inhibition) at 10uM” value was 21.8%.

Turning to `Cn1nc(C(F)(F)F)c(-c2ccccc2)c1NC(=O)c1ccco1`, the “hERG current change (%, negative = inhibition) at 10uM” value is listed as -3.07%.

Take `COc1ccc(-c2nc3scc(-c4ccccc4)n3n2)cc1`: the “hERG current change (%, negative = inhibition) at 10uM” value came to 10.1%. Take `CCN(CC)S(=O)(=O)c1ccc(NC(=S)NC(=O)C(C)C)cc1`: the “hERG current change (%, negative = inhibition) at 10uM” value is recorded as -3.29%. `Cc1cccc(CC(C)NC(=O)c2cc(COc3ccc(F)cc3F)on2)n1` (centres unmarked): the “hERG current change (%, negative = inhibition) at 10uM” value is given as -40.7%. Regarding `CC(=O)N(C)c1ccc(N=NC2C(=O)N(C(N)=S)N=C2C)cc1` (centres unmarked), the “hERG current change (%, negative = inhibition) at 10uM” value was found to be 21.1%. As to `O=c1c2oc3ccccc3c2[nH]c(=S)n1-c1ccc(F)cc1`, the “hERG current change (%, negative = inhibition) at 10uM” value is listed as 25.3%. In the case of `COC(=O)CSc1nc2cc(C)cc(C)c2cc1C#N` it was 14.5%; in that of `CCCOc1ccc(N2C(=O)CC(N(C(=O)c3ccco3)c3ccc(OCCC)cc3)C2=O)cc1` (centres unmarked), -4.62%; in that of `Cn1c(SCc2cccnc2)nc2c(c1=O)SCC2`, 7.48%. The value for `Nc1nc(SCC(=O)Nc2ncc(Cl)cc2Cl)n[nH]1` was 5.12%; that for `COc1ccc(/C=C/C(=O)OCC(=O)NCC2CCCO2)cc1` (centres unmarked) was 1.74%. On to `CC(Sc1nnc(COc2ccc(Cl)cc2)n1-c1ccccc1)C(=O)O` (centres unmarked), for which the “hERG current change (%, negative = inhibition) at 10uM” value stood at 3.41%. The value for `O=c1[nH]c(CN2CCN(C/C=C/c3ccccc3)CC2)nc2cc(Cl)ccc12` was -106%. The value for `COC(=O)/C(C(C)=O)=C(\C=C\N(C)C)N(C)C` was -4.57%; that for `CC(=O)Nc1cccc(NC(=O)CS(=O)(=O)c2cn(CC(=O)N3CCOCC3)c3ccccc23)c1` was -0.432%; that for `FC(F)(F)c1nnc2n1N=C(c1cccs1)CS2` was -3.38%.

Take `CN(C)CCCNC(=S)N1CCN(c2nc(-c3ccccc3)cs2)CC1`: the “hERG current change (%, negative = inhibition) at 10uM” value is -23.7%.

Turning to `COc1cccc2c1OCC(CN1CCN(CCC(C)C)C(CCO)C1)=C2` (centres unmarked), the “hERG current change (%, negative = inhibition) at 10uM” value is -3.37%.

With `O=C(NCCCN1CCOCC1)c1cc2ccccc2cc1O`, the “hERG current change (%, negative = inhibition) at 10uM” value was found to be 7.28%. The value for `COCCNC(=S)NCCc1ccc(Cl)cc1Cl` was 5%; that for `COc1ccc(N(CC(=O)N/N=C/c2ccco2)S(=O)(=O)c2ccccc2)cc1` was -31%. On to `CC1=C(C)CS(=O)N(c2ccc(S(N)(=O)=O)cc2)C1` (centres unmarked), for which the “hERG current change (%, negative = inhibition) at 10uM” value was -7.78%. The value for `CCN(CC(=O)NCc1ccc(Cl)cc1)C(=O)C(C)Sc1ccccc1` (centres unmarked) was -33.8%. The value for `CC(Oc1cccc(Br)c1)C(=O)NNC(=O)CCNC(=O)c1ccccc1Cl` (centres unmarked) was -5.69%.
